Source: article PMC4336329 (PLoS ONE, 2015)
Hit rate of the full screen: of about 310,000 compounds, about 14,000 (4.5%) showed an effect of 50% or more. The effect is printed as a negative number. Some of the results follow.

What follows are molecules tested against human ether-à-go-go-related gene (hERG) potassium channel (human, UniProt Q12809) (assay: primary screen, population patch clamp on CHO cells stably expressing hERG).
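Also: peak tail current of the secondary pulse compared with the same well before compound.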

human ether-à-go-go-related gene (hERG) potassium channel, sequence (Q12809 whole entry, looked up): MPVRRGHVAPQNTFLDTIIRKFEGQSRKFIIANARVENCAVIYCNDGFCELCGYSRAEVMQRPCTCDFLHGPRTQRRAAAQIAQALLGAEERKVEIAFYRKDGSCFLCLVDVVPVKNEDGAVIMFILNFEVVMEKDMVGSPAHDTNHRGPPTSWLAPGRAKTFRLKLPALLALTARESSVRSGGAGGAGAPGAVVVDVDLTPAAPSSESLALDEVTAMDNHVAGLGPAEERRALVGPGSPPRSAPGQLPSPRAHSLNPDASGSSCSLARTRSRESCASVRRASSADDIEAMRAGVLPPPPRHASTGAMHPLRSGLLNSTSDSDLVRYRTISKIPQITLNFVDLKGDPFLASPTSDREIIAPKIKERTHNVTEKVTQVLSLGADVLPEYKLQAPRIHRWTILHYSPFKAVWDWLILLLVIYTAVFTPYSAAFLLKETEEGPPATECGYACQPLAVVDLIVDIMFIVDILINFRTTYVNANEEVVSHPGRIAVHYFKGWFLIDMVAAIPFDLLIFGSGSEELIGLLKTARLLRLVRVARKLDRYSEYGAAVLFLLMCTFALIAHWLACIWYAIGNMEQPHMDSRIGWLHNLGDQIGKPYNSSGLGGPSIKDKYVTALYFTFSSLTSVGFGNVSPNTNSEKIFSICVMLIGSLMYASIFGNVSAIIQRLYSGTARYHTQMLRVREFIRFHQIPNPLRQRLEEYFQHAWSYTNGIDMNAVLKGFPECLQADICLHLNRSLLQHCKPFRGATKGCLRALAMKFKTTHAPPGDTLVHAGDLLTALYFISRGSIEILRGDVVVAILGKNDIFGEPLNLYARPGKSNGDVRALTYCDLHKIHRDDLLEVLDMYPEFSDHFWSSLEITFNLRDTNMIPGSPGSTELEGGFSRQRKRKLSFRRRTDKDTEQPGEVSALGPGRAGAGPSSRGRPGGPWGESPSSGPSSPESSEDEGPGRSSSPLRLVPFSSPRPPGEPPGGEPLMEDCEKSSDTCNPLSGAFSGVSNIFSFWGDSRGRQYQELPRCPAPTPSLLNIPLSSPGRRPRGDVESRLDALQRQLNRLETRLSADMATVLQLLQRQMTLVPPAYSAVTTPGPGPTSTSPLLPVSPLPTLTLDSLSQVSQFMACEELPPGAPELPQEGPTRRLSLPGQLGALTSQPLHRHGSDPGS

SMILES | hERG current change (%, negative = inhibition) at 10uM
CC(C)c1ccc(OCC(=O)Nc2cccc(C(=O)Nc3ccccc3C(=O)O)c2)cc1 | 24.3%
CCOc1ccc2oc(C(=O)N(CCOC)c3c(N)n(CC(C)C)c(=O)[nH]c3=O)c(C)c2c1 | -10.2%
COc1ccc(OC)c(N2C(=O)NC(=O)C3(Cc4cc(C)ccc4N(C)C3)C2=O)c1 (stereo not drawn) | -5.52%
C=CCNc1nc(C(=O)OCC(=O)c2ccc(OC)cc2OC)cs1 | -3.88%
O=c1[nH]cnc2scc(-c3ccccc3)c12 | 17.2%
O=C(CSc1ccc(Cl)cc1)Nc1ccc(-c2nc3ccccc3[nH]2)cc1 | 7.22%
Cc1nc2c(=O)n(C)c(=O)n(C)c2nc1Cl | -7%
CC(=O)Nc1ccc(S(=O)(=O)Nc2cccc3cccnc23)cc1 | -1.83%
CCC(c1nnnn1C1CCCCC1)N1CCN(C2CCCC2)CC1.Cl (stereo not drawn) | -3.77%
COc1ccc(-n2c(SCC(=O)Nc3cc(C)on3)nc3ccc(O)cc3c2=O)cc1OC | 12%
Cc1ccc(C)c(OCc2cc(C(=O)N(C)Cc3ccccn3)no2)c1 | -8.55%
Cc1ccc(C(=O)NCCCNC(=O)Cc2ccc(Cl)cc2)cn1 | -2.28%
CC/C(=N\NC(=O)CNC(=O)/C=C/c1ccco1)c1ccccc1 | -4.67%
CCc1ccc(C(=O)NNc2ccc(C)c(Cl)c2)cc1 | -0.312%
COc1ccccc1NC(=O)c1ccc(Cl)c(S(=O)(=O)N2CCCCC2)c1 | -18.8%
CCOC(=O)C(C)Sc1nnc(Cc2cc(=O)[nH]c(=O)[nH]2)n1-c1ccc(OCC)cc1 (stereo not drawn) | 3.87%
Cc1ccccc1NC(=O)NC1(C(=O)N2CCC(O)CC2)CCCCC1 | 21.6%
COc1ccc(C(=O)OCC(=O)Nc2ccc3[nH]c(=O)[nH]c3c2)c(OC)c1OC | 6.41%
Cc1ccc(S(=O)(=O)NCCC(=O)NCc2ccco2)cc1 | 4.19%
C=CCOc1ccc(/C=C2/C(=N)N3N=C(CC(=O)N4CCCC4)SC3=NC2=O)cc1OC | 18.6%
Cc1cccc(CS(=O)(=O)Cc2ccc(C(=O)N3CCC4(CC3)OCCO4)o2)c1 | 5.83%
O=C(Nc1nccs1)c1ccc(-c2ccccc2[N+](=O)[O-])o1 | -17.8%

SMILES | hERG current change (%, negative = inhibition) at 10uM
Cc1ccccc1Cn1c(=O)n(CCCC(=O)NCc2ccco2)c(=O)c2sccc21 | -31.4%
CC(C)c1cc(NC(=O)c2ccccc2)cc(C(C)C)c1O | -20.4%
Cn1c(=O)c(NCCO)c2c3c(cccc31)C(=O)c1ccccc1-2 | -20.2%
Cc1ccc(S(=O)(=O)N2CCCCC2)cc1NC(=O)C1CC(=O)N(Cc2ccco2)C1 (stereo not drawn) | 3.83%
COc1ccc(C(O)c2ncc(C(F)(F)F)cc2Cl)cc1 (stereo not drawn) | 9.8%
C/C(=N\NC(=O)C12CCC(C)(C(=O)O1)C2(C)C)c1ccccc1O (stereo not drawn) | -48.6%
CS(=O)(=O)N1CCN(C(=O)c2cccnc2)CC1 | 12.1%
CC1CCN(Cc2c(C(=O)N/N=C/c3cc(Cl)ccc3O)nnn2-c2nonc2N)CC1 | 26.2%
CC1CCN(C(=O)CSc2nnc(CNC(=O)c3ccco3)o2)CC1 | 21.2%
NS(=O)(=O)c1cccc(NC(=O)COC(=O)C2(c3cccc(F)c3)CCCC2)c1 | -6.66%
Cc1ccc(NC(=O)C2CC(=O)N(CCc3ccccc3)C2)cc1Cl (stereo not drawn) | 5.07%
COCC1COS(=O)(=O)NC1(C)C (stereo not drawn) | 4.24%
O=C1c2ccccc2C(=O)N1c1nc2nccc(-c3ccccc3)n2n1 | 9.56%
CCOC(=O)/C(C#N)=C/Nc1ccccc1OC | 0.538%
Cc1[nH]c2ccccc2c1C(=O)C(=O)NCCCc1ccccc1 | -2.91%
CCn1c(P(C)(=O)[O-])nc2cc(NC(=O)c3ccccc3Cl)ccc21.[K+] | 6.96%
O=C(CF)NC(NC(=S)Nc1cccc([N+](=O)[O-])c1)C(Cl)(Cl)Cl (stereo not drawn) | 6.12%
Cc1cc(C(=O)OCn2nnc3ccccc3c2=O)c(C)n1-c1ccccc1 | 16.3%
CCC(C)n1c(O)c(/C=N/Nc2ccccc2)c(=O)[nH]c1=S (stereo not drawn) | -25.1%
COc1ccc(C)cc1NC(=O)C1CCCN1S(=O)(=O)c1ccccc1F (stereo not drawn) | -9.61%
COc1ccc2oc(C(=O)OCC(=O)N(Cc3ccccc3)C(C)(C)C)c(C)c2c1 | 10.5%
CSc1nc(NCc2ccco2)c2sc3nc(C(C)C)c4c(c3c2n1)CC(C)(C)OC4 | 2.32%

SMILES | hERG current change (%, negative = inhibition) at 10uM
Cc1c(NS(=O)(=O)c2ccc(NCC3CCCO3)c([N+](=O)[O-])c2)c(=O)n(-c2ccccc2)n1C (stereo not drawn) | -18.9%
COc1cccc(-c2nnc(SCC(=O)Nc3cc(C)on3)o2)c1 | 3.16%
COc1ccc(OCCCC(=O)NCCc2ccccc2)cc1 | -7.79%
CCOc1ccc(-n2c(-c3ccc(OC)cc3)c[n+]3c2CCCCC3)cc1.[Br-] | -76%
Cc1ccc(N2CC(C(=O)N3CCC(C(=O)Nc4nnc(C(C)(C)C)s4)CC3)CC2=O)cc1 (stereo not drawn) | -3.37%
NC(=O)c1ccccc1NS(=O)(=O)c1ccc(F)cc1 | 17.4%
Cc1ccnc2nc(C(=O)Nc3nnc(-c4ccccc4)o3)nn12 | 5.4%
COc1ccc(CN2CCNC(=O)C2CC(=O)NCCSc2nccn2C)c(OC)c1 (stereo not drawn) | 7.79%
COc1cccc(C(=O)NN2CC(O)=C(c3nc4ccccc4n3C)C2=N)c1 | -6.93%
CCOc1ccc(OCC)c(NC(=O)CCn2c(=O)oc3ccccc32)c1 | -4.3%
Cn1c(CN2CCN(CCO)CC2)c(C#N)c2ccccc21 | -13.9%
NC(=O)CC(c1ccccc1)c1ccco1 (stereo not drawn) | 19.8%
CCc1nnc(NS(=O)(=O)c2ccc(NC(=S)Nc3ccc(F)cc3)cc2)s1 | 13.1%
Fc1cccc(CSc2nc3ncc(Cl)cc3[nH]2)c1 | 15.9%
CC(=O)NN1C(=O)/C(=C\c2ccccc2)SC1=S | -7.01%
Cc1cc(C)nc(NCC(O)COc2ccccc2C)n1 (stereo not drawn) | 7%
CC(CCc1ccccc1)NC(=O)CN1C(=O)NC2(CCCCC2)C1=O (stereo not drawn) | 6.05%
O=C(/C=C/c1ccc([N+](=O)[O-])cc1)OCc1cnc(-c2ccccc2)o1 | 6.89%
COC(=O)c1ccccc1NC(=O)c1cc([N+](=O)[O-])nn1Cc1ccccc1 | 13%
CCN(CC)CCN(C(=O)c1cc2c(ccc3ccccc32)oc1=O)c1nc2cc3c(cc2s1)OCCO3.Cl | 1.58%
Cc1ccc(S(=O)(=O)Nc2c(C)nc3nc(C)[nH]n3c2=O)cc1 | 19.9%
Nc1ccccc1C(=O)Nc1ccc(Cl)cc1Cl | 12.4%

SMILES | hERG current change (%, negative = inhibition) at 10uM
N=c1c2c3c(sc2ncn1N)CCCCC3 | -12.6%
CC(=O)C1C(=O)c2c(cccc2[N+](=O)[O-])C1=Nc1cccc(Cl)c1 (stereo not drawn) | -1.78%
Oc1ccccc1-c1csc(-c2ccccc2)n1 | 15%
CS(=O)(=O)c1sc(C#N)c2c1C(=O)CC(c1ccccc1)C2 (stereo not drawn) | 16.9%
COCCCN1C(=O)c2ccc(C(=O)Nc3ccc(C)cc3C)cc2C1=O | 2.51%
Cc1ccccc1OCC(=O)N(Cc1nnc(-c2ccc(Cl)cc2)o1)C(C)C | -53.5%
CCC1(c2ccccc2)NC(=O)N(Cc2cccc([N+](=O)[O-])c2)C1=O (stereo not drawn) | -38.8%
COc1cc(/C=N/NC(=S)NC(C)C)ccc1OCC(=O)Nc1c(C)cc(C)cc1C | 9.83%
COc1cc(NC(=O)C2=C(C)OCCS2)c(Cl)cc1C(=O)NCCN(C)C | -3.65%
CC/C(=N\N1CCN(C)CC1)c1c(O)[nH]c(=O)[nH]c1=O | 8.15%
O=C(CCn1c(=O)c2cccn2c2ccccc21)Nc1ccc(F)cc1 | -16%
C[C@H](NC(=O)c1nc[nH]c1C(=O)N1CCN(c2ccccc2)CC1)C(=O)OCc1ccccc1 | -2.19%
Brc1cccc(-c2nnc3sc(CNCc4ccco4)cn23)c1 | -60.3%
COc1ccc(C(CNC(=O)c2cc3c(s2)CCC(C)C3)N2CCCC2)cc1 (stereo not drawn) | -57.7%
COc1ccc(NC(=O)c2cc(-c3ccccc3)nc3c2cnn3C(C)C)c(OC)c1 | 5.18%
COc1ccc(CC(C(=O)Nc2ccc(OC)cc2)c2nn[nH]n2)cc1 (stereo not drawn) | 20.2%
O=C(O)C1C2C=CC(C3CC23)C1C(=O)NCCc1ccccc1 (stereo not drawn) | 3.94%
COc1ccccc1C(=O)Nc1ccnn1C1CCN(Cc2ccccc2OCCO)CC1 | -78.7%
CCc1ccccc1NC(=O)CSc1ncn[nH]1 | 9.18%
CC(=O)Nc1ccc(S(=O)(=O)NCC2CCC(C(=O)NCCCN3CCCC3=O)CC2)cc1 (stereo not drawn) | -5.63%
Cc1cccc2c1NC(=O)C2(O)N1CCCC(C)C1 (stereo not drawn) | 15.9%
